Binding signal data for 22 molecules are collected here from publication PMC12136788.

T1: UNK ZnF1-3 (human, UniProt Q9C0B0 31-174)
T1 sequence: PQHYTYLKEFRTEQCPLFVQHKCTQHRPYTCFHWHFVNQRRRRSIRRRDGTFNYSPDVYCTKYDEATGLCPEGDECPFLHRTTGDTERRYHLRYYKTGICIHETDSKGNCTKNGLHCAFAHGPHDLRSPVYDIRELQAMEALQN

B1: 118583070_118583859_1604_CDS_ENSG00000088205_ENST00000263239|human|control|control (ssRNA)
RNA: GGGAGUUCUACAGUCCGACGAUCACGAUGAAUAUAUUCCUUAGGGUCAUCCGGAGGGUCAUACUGAACAAUCCAGUCGACUUCAGGAAUGUCUAGUCCUCUCGCUGCCACAUCCGUACACAAUAGUGUUCCCGAAUCUGCAUUCAACAGAGGAUUGAGCAUCA
B2: 126976123_126976385_234_ncRNA_ENSMUSG00000040249_ENSMUST00000135188|mouse|control|control (ssRNA)
RNA: GGGAGUUCUACAGUCCGACGAUCACUGGGUUGGUGAAGUUGGUAGGCUUGUCAGGGUCAAGGGCAAAAUCAGCAUCCAGUAGGCCCCCGACAUCAUCGGGCUCUCCACCUUCAUACAUCUUGUAGGUAGGGUUUCCAAUUUCCCAACAGAGGAUUGAGCAUCA
B3: chr4:115894766:115894767:+_ENSMUSG00000028698_ENSMUST00000030464|mus_hu|mus_mus_mus_hu_True|8_108 (ssRNA)
RNA: GGGAGUUCUACAGUCCGACGAUCUUCACACGGAAAUUGUACUUCGGGUUUUCCAACGGCCAGUACCAGUCCGGCCAAACUACCCGAACAGGGUCCUCCCCCUCUCUCCUACAGAACACAACAAAAUAACAAAAUACUUUCAAGCAACAGAGGAUUGAGCAUCA
B4: chr11:77336104:77336105:-_ENSG00000074201_ENST00000525064|hu_mus|hu_hu_hu_mus_False|58_78 (ssRNA)
RNA: GGGAGUUCUACAGUCCGACGAUCCUCACACAUUGCUGUGAACAUCGCCUCCAAUGCUGAUUUAUCACUGGGCACAAAUCUAAAUUCAGAAAUGGGUUCAACAUCAUCAUUGUCUUCCUCAUCUUCAUCAGAGAGAGGUUCUUUCAACAGAGGAUUGAGCAUCA
B5: chr17:73195629:73195630:+_ENSMUSG00000039770_ENSMUST00000045174|mus_hu|motif|central (ssRNA)
RNA: GGGAGUUCUACAGUCCGACGAUCACGGGUACCACCGAUAUGAUCAAGGAAAAUUCUGCCCAUUUUUAUGGCUGAAGUUCGGAAAACCCUGAGCGGCGGUGAGAUCCGCGGCUGCCAGCGGCUUGUCGCUCUUCAGCUGGUAUGCAACAGAGGAUUGAGCAUCA
B6: chr16:94664741:94664742:+_ENSMUSG00000040785_ENSMUST00000117648|mus_hu|mus_mus_mus_hu_False|58_58 (ssRNA)
RNA: GGGAGUUCUACAGUCCGACGAUCUGGUACUGAUCUUGGUAGCUGAUAUUCAGGAGAAAGGCUGGCCAAGGGUGUAUAAAUGCUAGUGUACUGGGGCAAACCUGGUAACACGUUUAUGUAUGCUGGCGGUGUCUGGGUGAUAUCCAACAGAGGAUUGAGCAUCA
B7: chr10:111893621:111893622:+_ENSG00000148700_ENST00000277900|hu_mus|FALSE|FALSE (ssRNA)
RNA: GGGAGUUCUACAGUCCGACGAUCACCAGGCAGCAGCUGCUAAGGAGCAACAGUAACAACGCUCUGCCAGGGACGGCAGAGUCGGCCAAGCCAGCCACUGCUGAAAAGCUCGGCCGUUUUCGGACAUAUAAAAAGAGAUGAAUUCAACAGAGGAUUGAGCAUCA
B8: 17587103_17598582_181_CDS_ENSMUSG00000015733_ENSMUST00000015877|mouse|control|control (ssRNA)
RNA: GGGAGUUCUACAGUCCGACGAUCAUUAAAAACCUCAUUAAAUUCUCCAGGAGGGGCGUGAAUGAUGAAUUUUGCUGCUAUACGAACCUUCUCCUCAUCGGACAACUGCUCCUCCAGAUCCGCCAUCUUCCUUCUGGCGACAGACAACAGAGGAUUGAGCAUCA
B9: chr9:2804355:2804356:-_ENSG00000080608_ENST00000397885|hu_hu|motif|central (ssRNA)
RNA: GGGAGUUCUACAGUCCGACGAUCUUCCAUCUUGCUCUUAACUCUUUCCACCUAUGUGCUCAGUUUUUCAAGUAGAAUUUCGGUUCCUUUGCUGGUGCUUUUGGUUUUUUCCAAUGUAGGAAUCAAGCUUUUCAGUGCAGCUUUCAACAGAGGAUUGAGCAUCA
B10: chr17:41352247:41352248:+_ENSG00000188554_ENST00000341165|hu_hu|FALSE|FALSE (ssRNA)
RNA: GGGAGUUCUACAGUCCGACGAUCCUCAUCCUCCUCCUCCUCAUCCUCCUCAUCCUCCUCCUCCUCCAUGACAGCUUCUUCCUCAGCGAUAUGGAUAAUCUCCUCCUUCUCAUUUCCAAGUGGUCCUUCAGGCAAGGCAAAUGUCAACAGAGGAUUGAGCAUCA
B11: chr2:91446484:91446485:+_ENSMUSG00000040549_ENSMUST00000099716|mus_hu|FALSE|FALSE (ssRNA)
RNA: GGGAGUUCUACAGUCCGACGAUCCAAUUUCUCAUCUGCCAUGUGUGUGUUGUAGAUGAGUCUUAGCUGCAUAAAAGUGGCUAUCAGAAACUGAUCAAUAUGGCCGGACAUGGCUUCAGCUUUGUCUUCCUGUCUCAGGACCUCCAACAGAGGAUUGAGCAUCA
B12: chr2:47388980:47388981:-_ENSG00000143933_ENST00000272298|hu_mus|motif|central (ssRNA)
RNA: GGGAGUUCUACAGUCCGACGAUCUUCAUCUGUUAACUUCUCGCCAAGGUUUGUCAUCACAUGGCGAAGCUCUGCUGCACGGAUAUAGCCAUUGCCAUCCUUAUCAAACACACGGAAUGCUUCUCUAAUCUCUUCUUCACUGUCCAACAGAGGAUUGAGCAUCA
B13: 112911146_112911266_4521_CDS_ENSMUSG00000036862_ENSMUST00000078482|mouse|control|control (ssRNA)
RNA: GGGAGUUCUACAGUCCGACGAUCGUGCUCGUUCUCGUCCUGCACACGCACCUGCACUCUCAACAGCCGCGCGCCUGCGCCUCCCGGCCCCUCGGCGCGCACGGUGAGCGCGCGCCAGGCUGGCCCAGCCUCGAAGUCCAAGGGCAACAGAGGAUUGAGCAUCA
B14: 142051898_142066100_4030_3pUTR_ENSG00000114127_ENST00000264951|human|control|control (ssRNA)
RNA: GGGAGUUCUACAGUCCGACGAUCAGAUGCUAAAAAGUUCUCAAUUCCAGAGUUAGGCUGCUUAUUGGACAUUUUUUGGGACCAACACUCAGCUUUAGGACUCUUACACUCUUCUUUAAAUUUUCUGUGAGGGUCAUGUUUUCUCAACAGAGGAUUGAGCAUCA
B15: chrX:153994619:153994620:+_ENSG00000130826_ENST00000369550|hu_hu|FALSE|FALSE (ssRNA)
RNA: GGGAGUUCUACAGUCCGACGAUCCCCCACAUACUCUUUGCCUGCACUCUGUUGUGACUUCACCAAGCGAGUGGCUCGUUCUAUGCACACGAUUAAACAACCAGUCACCUUGGGAUCCAGCGUACCACUGUGCCCUGUCUUCUCCAACAGAGGAUUGAGCAUCA
B16: 168347556_168348975_3564_CDS_ENSG00000130396_ENST00000400822|human|control|control (ssRNA)
RNA: GGGAGUUCUACAGUCCGACGAUCCUCCUCAGUGCAGAGGUUUCCAGUAGAGACAGAUGUUAUCUUCGCUGUUGUUCCAGAGGCAUAUGCACUUUUCCCUCCAGGACUAGGAGGCUGAUUUGCUACGUUGGGGCUGGAACGGUGCAACAGAGGAUUGAGCAUCA
B17: chr6:55002191:55002192:+_ENSMUSG00000029777_ENSMUST00000003572|mus_hu|FALSE|FALSE (ssRNA)
RNA: GGGAGUUCUACAGUCCGACGAUCAUGGUCAGCACGAAAACAUUCUCCAUUUUUUACGUCUUUCACCAUGAAGUCAGCAAAUUUGUCUACAUGGCCAGAGGUCUUUAAAACUGGCUCAGGGGUGAGCAUGGUGCAAUCGAUCUCCAACAGAGGAUUGAGCAUCA
B18: chr12:73895003:73895004:+_ENSMUSG00000021096_ENSMUST00000021514|mus_hu|FALSE|FALSE (ssRNA)
RNA: GGGAGUUCUACAGUCCGACGAUCUAACUUUGAUAGUGAUUUAAAGCAGUUCAUAAUUAAAUAUGAGCAUUUUGUACAAGGACAAUUACACUUUACAAAAAAACAAAAUCAUACAACAAAAAUUGCUGGAGUCUGAUUUACAACCAACAGAGGAUUGAGCAUCA
B19: 29314414_29319958_652_CDS_ENSG00000159023_ENST00000356093|human|control|control (ssRNA)
RNA: GGGAGUUCUACAGUCCGACGAUCUGUUUCUGCUUUUGAUUGAGGGCUUUCUUCUUUUACUUCUAUUUUGGAGCACUCUUCAAGUCCUUCUCCUUCCUUAAUUUCAAAAUCUGGAUCUUCUCUGAGUUCUUCCUGAGCAGGCUGCAACAGAGGAUUGAGCAUCA
B20: 79764536_79767469_2262_CDS_ENSG00000148606_ENST00000372371|human|control|control (ssRNA)
RNA: GGGAGUUCUACAGUCCGACGAUCGAUGUACUCAUCACAUUUCUUGUAGCCGGCAUUCAGCAACUCAUACUUGGCCUUCAGCAGUCCUUGGCCAGGUGUGACAUCACCGAUCCCAAUUGAGAAACCACGGUUAGACAGGUAGACCAACAGAGGAUUGAGCAUCA
B21: chr11:77336104:77336105:-_ENSG00000074201_ENST00000525064|hu_mus|hu_hu_hu_mus_False|8_58 (ssRNA)
RNA: B4 RNA with U60C, G130U, A131C, G132A, A133G, G134C, G136A
B22: 88450866_88452941_500_CDS_ENSG00000054983_ENST00000261304|human|control|control (ssRNA)
RNA: GGGAGUUCUACAGUCCGACGAUCCCAUGGCAACCCAAUGAGUGUAAUAUUGGGAUUCCUCUUCUUAGCUUCUUUCAUCAACCACCACUCGUAUCCUCGGAAAUAAUUCUCAUCUAGUGCAUAAUGCAUGUGGGAGGGCUCAGUCAACAGAGGAUUGAGCAUCA

Changes are numbered by the printed parent chain. Some of the results follow.

The assay has as its target T1, UNK ZnF1-3. The assay can be described thus: nsRBNS (natural sequence RNA bind-n-seq); RBNS binding buffer (assumed for nsRBNS): 25 mM Tris pH 7.5, 150 mM KCl, 3 mM MgCl2, 0.01% Triton X-100, 500 ug/ml BSA, 20 U/ml SUPERase-In, 4 C; UNK is unkempt and MSI1 is Musashi-1; names of the RNAs are library labels; protein concentration not given here; high values mean tight binding.
In the case of B1, the binding signal was 0.525 enrichment R.

With B2, the binding signal came out at 0.495 enrichment R. Next, B3: 1.05 enrichment R; B4: 0.887 enrichment R. Molecule B5 showed a binding signal of 0.75 enrichment R.

As to B6, the binding signal was 1.04 enrichment R. B7: the binding signal came to 1.13 enrichment R. Next, B8: 0.78 enrichment R; B9: 0.32 enrichment R; B10: 0.793 enrichment R. In the case of B11 it was 0.726 enrichment R; in that of B12, 0.609 enrichment R. B13 returned a binding signal of 0.76 enrichment R. Molecule B14 showed a binding signal of 0.671 enrichment R. In the case of B15 it was 0.906 enrichment R; in that of B16, 0.843 enrichment R.

On to B17, for which the binding signal was found to be 0.825 enrichment R. Next, B18: 0.866 enrichment R; B19: 0.371 enrichment R; B20: 0.831 enrichment R.

Regarding B21, the binding signal worked out at 1.02 enrichment R. Next, B22: 1.21 enrichment R.
